Laboratory results as given in patent US20260201058A1 (SICHUAN HUIYU PHARMACEUTICAL, published 2026).

How the values were obtained:
[1] = biological target: T1, human CD3εγ (acrobiosystems, CDG-H52W5) (human, UniProt P07766 23-126; P09693 23-116); experiment: Carterra HC200M chip, antibody captured via anti-human IgG Fc, 1:1 model
T1 construct: Bought protein

[2] = biological target: T2, human PD-L1 protein (ACRO, PD1-H5258) (human, UniProt Q9NZQ7 fragment); experiment: as above
T2 construct: Bought protein; also called Human PDL1-Fc

[3] = biological target: T3, hFc-tagged human MSLN recombinant protein (huMSLN-hFc, Kactus Biosystems, MSL-HM280) (human, UniProt Q13421 296-580); experiment: as above
T3 construct: Bought protein; also called huMSLN-Fc; human MSLN-Fc

[4] = biological target: T4, human MSLN on MC38/MSLN cells (human, UniProt Q13421 296-598); experiment: flow cytometry on MC38/MSLN cells (human MSLN)
T4 construct: whole, on cells; also called huMSLN; cells expressing MSLN

[5] = biological target: T5, human PD-L1 on CHO-huPDL1 cells (human, UniProt Q9NZQ7); experiment: flow cytometry on CHO-huPDL1 cells
T5 construct: whole, on cells; also called CHO-hPDL1
Text: After washing with PBS, a flow cytometer was used for detection.

[6] = biological target: CD3 on human Jurkat cells (ATCC TIB-152) (human); experiment: flow cytometry on Jurkat cells

T1 sequence (P07766 23-126, chain 1 of 2): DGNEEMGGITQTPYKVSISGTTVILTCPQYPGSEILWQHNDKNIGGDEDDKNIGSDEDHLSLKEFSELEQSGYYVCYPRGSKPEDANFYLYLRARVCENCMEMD
T1 sequence (P09693 23-116, chain 2 of 2, further chain): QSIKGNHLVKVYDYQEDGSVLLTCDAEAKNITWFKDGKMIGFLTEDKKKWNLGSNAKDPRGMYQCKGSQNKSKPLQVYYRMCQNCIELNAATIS

Row | Binder | Kd [1] [nM] | Kd [2] [nM] | Kd [3] [nM] | EC50 (read off the curve) [4] [nM] | EC50 (read off the curve) [5] [nM] | EC50 [6] [nM]
1 | CD3-PDL1-MSLN trispecific antibody 5Y3-6 (other, Trispecific, three chains, structure as for 5Y3-1) light: [omitted - about 100 residues][omitted - about 100 residues] heavy: EVQLVESGGGLVQPGGSLRLSCAASGFTFNTYAMNWVRQAPGKGLEWVARIRSKYNNYATYYADSVKDRFTISRDDSKSSLYLQMNNLKTEDTAMYYCVRHGNFGNTYVSWFAMWGQGTLVTVSSASTKGPSVFPLAPSSKSTSGGTAALGCLVKDYFPEPVTVSWNSGALTSGVHTFPAVLQSSGLYSLSSVVTVPSSSLGTQTYICNVNHKPSNTKVDKKVEPKSCDKTHTCPPCPAPEAAGAPSVFLFPPKPKDTLMISRTPEVTCVVVDVSHEDPEVKFNWYVDGVEVHNAKTKPREEQYNSTYRVVSVLTVLHQDWLNGKEYKCAVSNKALPAPIEKTISKAKGQPREPQVYTLPPSRDELTKNQVSLWCLVKGFYPSDIAVEWESNGQPENNYKTTPPVLDSDGSFFLYSKLTVDKSRWQQGNVFSCSVMHEALHNHYTQKSLSLSPGGGGGSGGGGSGGGGSEVQLVESGGGLIQPGGSLRLSCAASGNIGSIRHMGWVRQAPGKERELVATITTVGTTYYANFVKGRFTISRDNSKNTLYLQMNSLRAEDTAVYYCRATAHPTDYWGQGTLVTVSS EVQLVESGGGLIQPGGSLRLSCAASGNIGSIRHMGWVRQAPGKERELVATITTVGTTYYANFVKGRFTISRDNSKNTLYLQMNSLRAEDTAVYYCRATAHPTDYWGQGTLVTVSSGGGGSDKTHTCPPCPAPEAAGAPSVFLFPPKPKDTLMISRTPEVTCVVVDVSHEDPEVKFNWYVDGVEVHNAKTKPREEQYNSTYRVVSVLTVLHQDWLNGKEYKCAVSNKALPAPIEKTISKAKGQPREPQVYTLPPSRDELTKNQVSLSCAVKGFYPSDIAVEWESNGQPENNYKTTPPVLDSDGSFFLVSKLTVDKSRWQQGNVFSCSVMHEALHNHYTQKSLSLSPGGGGGSGGGGSGGGGSEVQLLESGGGLVQPGGSLRLSCAASGRTFSTNVMGWFRQAPGKGREFVSAISRAGSTYSADSVKGRFTISRDNSKNTLYLQMNSLRAEDTAVYYCAAGSSPTAIFGKSGMDYWGQGTQVTVSS | 277 | 344 | 4.52 | ~2 | ~50 | 38.2
2 | CD3-PDL1-MSLN trispecific antibody 5Y3-9 (other, Trispecific, three chains, structure as for 5Y3-1) light: [omitted - about 100 residues][omitted - about 100 residues] heavy: EVQLVESGGGLVQPGGSLRLSCAASGFTFNTYAMNWVRQAPGKGLEWVARIRSKYNNYATYYADSVKDRFTISRDDSKSSLYLQMNNLKTEDTAMYYCVRHGNFGNTYVSWFAMWGQGTLVTVSSASTKGPSVFPLAPSSKSTSGGTAALGCLVKDYFPEPVTVSWNSGALTSGVHTFPAVLQSSGLYSLSSVVTVPSSSLGTQTYICNVNHKPSNTKVDKKVEPKSCDKTHTCPPCPAPEAAGAPSVFLFPPKPKDTLMISRTPEVTCVVVDVSHEDPEVKFNWYVDGVEVHNAKTKPREEQYNSTYRVVSVLTVLHQDWLNGKEYKCAVSNKALPAPIEKTISKAKGQPREPQVYTLPPSRDELTKNQVSLWCLVKGFYPSDIAVEWESNGQPENNYKTTPPVLDSDGSFFLYSKLTVDKSRWQQGNVFSCSVMHEALHNHYTQKSLSLSPGGGGGSGGGGSGGGGSEVQLVESGGGLIQPGGSLRLSCAASGNIGSIRHMGWVRQAPGKERELVATITTVGTTYYANFVKGRFTISRDNSKNTLYLQMNSLRAEDTAVYYCRATAHPTDYWGQGTLVTVSS EVQLVESGGGLIQPGGSLRLSCAASGNIGSIRHMGWVRQAPGKERELVATITTVGTTYYANFVKGRFTISRDNSKNTLYLQMNSLRAEDTAVYYCRATAHPTDYWGQGTLVTVSSGGGGSDKTHTCPPCPAPEAAGAPSVFLFPPKPKDTLMISRTPEVTCVVVDVSHEDPEVKFNWYVDGVEVHNAKTKPREEQYNSTYRVVSVLTVLHQDWLNGKEYKCAVSNKALPAPIEKTISKAKGQPREPQVYTLPPSRDELTKNQVSLSCAVKGFYPSDIAVEWESNGQPENNYKTTPPVLDSDGSFFLVSKLTVDKSRWQQGNVFSCSVMHEALHNHYTQKSLSLSPGGGGGSGGGGSGGGGSEVQLLESGGGLVQPGGSLRLSCAASGRTFSSYVMGWFRQAPGKGREFVSAISRAGSTYSADSVKGRFTISRDNSKNTLYLQMNSLRAEDTAVYYCAAGSSPTAIFGKSGMDYWGQGTQVTVSS | 268 | 119 | 4.18 | ~2 |  | 23.4
3 | CD3-PDL1-MSLN trispecific antibody 5Y3-10 (other, Trispecific, three chains, structure as for 5Y3-1) light: [omitted - about 100 residues][omitted - about 100 residues] heavy: EVQLVESGGGLVQPGGSLRLSCAASGFTFNTYAMNWVRQAPGKGLEWVARIRSKYNNYATYYADSVKGRFTISRDDSKSSLYLQMNSLKTEDTAVYYCVRHGNFGNNYVSWFASWGQGTLVTVSSASTKGPSVFPLAPSSKSTSGGTAALGCLVKDYFPEPVTVSWNSGALTSGVHTFPAVLQSSGLYSLSSVVTVPSSSLGTQTYICNVNHKPSNTKVDKKVEPKSCDKTHTCPPCPAPEAAGAPSVFLFPPKPKDTLMISRTPEVTCVVVDVSHEDPEVKFNWYVDGVEVHNAKTKPREEQYNSTYRVVSVLTVLHQDWLNGKEYKCAVSNKALPAPIEKTISKAKGQPREPQVYTLPPSRDELTKNQVSLWCLVKGFYPSDIAVEWESNGQPENNYKTTPPVLDSDGSFFLYSKLTVDKSRWQQGNVFSCSVMHEALHNHYTQKSLSLSPGGGGGSGGGGSGGGGSEVQLVESGGGLIQPGGSLRLSCAASGNIGSIRHMGWVRQAPGKERELVATITTVGTTYYANFVKGRFTISRDNSKNTLYLQMNSLRAEDTAVYYCRATAHPTDYWGQGTLVTVSS EVQLVESGGGLIQPGGSLRLSCAASGNIGSIRHMGWVRQAPGKERELVATITTVGTTYYANFVKGRFTISRDNSKNTLYLQMNSLRAEDTAVYYCRATAHPTDYWGQGTLVTVSSGGGGSDKTHTCPPCPAPEAAGAPSVFLFPPKPKDTLMISRTPEVTCVVVDVSHEDPEVKFNWYVDGVEVHNAKTKPREEQYNSTYRVVSVLTVLHQDWLNGKEYKCAVSNKALPAPIEKTISKAKGQPREPQVYTLPPSRDELTKNQVSLSCAVKGFYPSDIAVEWESNGQPENNYKTTPPVLDSDGSFFLVSKLTVDKSRWQQGNVFSCSVMHEALHNHYTQKSLSLSPGGGGGSGGGGSGGGGSEVQLLESGGGLVQPGGSLRLSCAASGRTFSTNVMGWFRQAPGKEREFVSAISRAGSTYSADSVKGRFTISRDNSKNTLYLQMNSLRAEDTAVYYCAAGSSPTAIFGKSGMDYWGQGTQVTVSS | 595 | 370 | 4.45 | ~2 |  | 50.9
